# Test results as given in patent US11178870B2 (priority 2017, dated 2021).
# Key:
# Magnaporthe grisea = format: in vivo; conditions: Table 7, Test A
# Phytophthora infestans = format: in vivo; conditions: Table 7, Test F
# [1] = test system: Colletotrichum orbiculare; conditions: 250 ppm sprayed (2.5 ml/pot) before inoculation; assessed 6 to 10 days after inoculation
Compound,"control value, Test A (blast on rice) (Magnaporthe grisea)","control value, Test F (late blight on tomato) (Phytophthora infestans)","control value, Test H (anthracnose on cucumber) [1]"
Cc1ccccc1-c1c(-n2ncc(C)c2Cl)cc(Cl)c(=O)n1CC(F)F [Compound 306],H (H shows the control value more than 50%),L (L shows the control value of 50% or less),H (H shows the control value more than 50%)
CCn1c(-c2ccc(F)cc2Cl)c(-n2ncc(C)c2Cl)cc(Br)c1=O [Compound 337],H (H shows the control value more than 50%),H (H shows the control value more than 50%),H (H shows the control value more than 50%)
CCn1c(-c2ccc(OC)cc2Br)c(-n2cc(F)cn2)cc(Cl)c1=O [Compound 355],H (H shows the control value more than 50%),,
